B1: chr2:224770714:224770715:-_ENSG00000085449_ENST00000233055|hu_hu|FALSE|FALSE (ssRNA)
RNA: GGGAGUUCUACAGUCCGACGAUCAUGAGCUGGGUAGGUCUUGAUAAAGUUCAUUUUAUUAAAAUCUUCAGAAACGUGAAAUUCCAUUACAGCUCCAUUAUCCUGGCCCACAAAUAUCCGUCUGCUGUCAUGAUGGUAAGCCAUCAACAGAGGAUUGAGCAUCA
B2: chr7:75932113:75932114:+_ENSG00000106211_ENST00000248553|hu_hu|hu_hu_hu_mus_False|18_48 (ssRNA)
RNA: GGGAGUUCUACAGUCCGACGAUCCUGCGACCACUCAUCGGGCAACCGGGGCACCCCGAAAGCUUGAUCGAAGAGGCGGCUGUGUGCGUACCAGUCGUCCCGGAAUGGUUCCCAGCUGCCCCGCAGGAGCAGCGAGAAGGGCACCAACAGAGGAUUGAGCAUCA
B3: chr6:83912051:83912052:+_ENSMUSG00000030016_ENSMUST00000032088|mus_hu|motif|central (ssRNA)
RNA: GGGAGUUCUACAGUCCGACGAUCUGCCUUUUUAUGAGAUGAUAAAAUCAAGAUAUCCUUUAAACCACCAAAUGGUUUUGCGGAGUCAUAAACUUCUUCUACAGAAUAUCCUUUAUUAGGCAAAUUAGAGACAAGCAUCACACACAACAGAGGAUUGAGCAUCA
B4: chr18:51681570:51681571:-_ENSG00000134046_ENST00000256429|hu_mus|motif|central (ssRNA)
RNA: GGGAGUUCUACAGUCCGACGAUCUAGAUAUAUACAUCAAAAAUACAUCUAAAAAGGCAUUGGUUAGUGCUAUUAAAAAGCGGUGUGCUCAGGUACACUUUUUCUUACAGGCGAAACCCAGUGGAAAUGUUUUAAUUCUGUUUCCAACAGAGGAUUGAGCAUCA
B5: chr7:108213676:108213677:+_ENSG00000128590_ENST00000249356|hu_mus|FALSE|FALSE (ssRNA)
RNA: GGGAGUUCUACAGUCCGACGAUCUCCAUGAAAUCUAUUUUCAGUCUGUACUGUGUGUCGAUUGGUGGUAUCAAAGCCACUAAAAGAAAACAUUUUCUCCAUGUCUUCAAACAUAUCAUCAAACAAUCCGCCUCCAAAAGAAAACAACAGAGGAUUGAGCAUCA
B6: chr1:63024871:63024872:-_ENSG00000116641_ENST00000251157|hu_mus|FALSE|FALSE (ssRNA)
RNA: GGGAGUUCUACAGUCCGACGAUCGUCCCCAAUUCGGACCGGGAACAUGUGUUCAUCCAGAGCAUUGACAAGAGCAAAGAAUUUGUCUAGAUAAGGGUCUUGUGUAUGAAUGGAUGAAACAGCAACAACUUCAACAUUAAAUACCAACAGAGGAUUGAGCAUCA
B7: chr22:32879901:32879902:+_ENSG00000100225_ENST00000397426|hu_mus|hu_hu_hu_mus_False|1_58 (ssRNA)
RNA: GGGAGUUCUACAGUCCGACGAUCCUCUUCCAUACUCAUGGCAUCCUGAAUUGACUCAGCUUCAACAUUUUGACUAGGCCCUAACAUACUGUCAUCAGUCCAGGCAUCAAAUGGGGUGGCCUGUCCUUGGGAUGAAUCACUUGGCAACAGAGGAUUGAGCAUCA
B8: chr7:75932113:75932114:+_ENSG00000106211_ENST00000248553|hu_hu|hu_hu_hu_mus_False|58_98 (ssRNA)
RNA: GGGAGUUCUACAGUCCGACGAUCCUGCGACCACUCAUCCGGCAGCCGGGGCACCCCGAAAGCUUGAUCGAAGAGGCGGCUAUGCGGAGGGUACCAGUCCCGGAAUGGUUCCCAGCUCGGGCUCCGCAGCAGCGAGAAGGGCACCAACAGAGGAUUGAGCAUCA
B9: 95069485_95072215_582_CDS_ENSMUSG00000015711_ENSMUST00000015855|mouse|control|control (ssRNA)
RNA: GGGAGUUCUACAGUCCGACGAUCAAGCUCAGAACGCUUUAUAUUUAAAACUGGUAUAAAGAUGUCUUCAGCUUCAGACGUCUUUGUUAGGUAGAAGGCCAAGGCGAGAGCAGACACCAUGGAGUCUAAGUCGCAGGCUUCAUUCAACAGAGGAUUGAGCAUCA
B10: chr4:115894766:115894767:+_ENSMUSG00000028698_ENSMUST00000030464|mus_hu|mus_mus_mus_hu_True|8_58 (ssRNA)
RNA: GGGAGUUCUACAGUCCGACGAUCUUCCACACGGAAAUGUACUUCGGGUUUUCCAACGGCCAGUACCAGUCCGGCCAACUACUAGGAACAGGGUCCUCCCCCUCUCUCCUACAGAACACAACAAAAUAACAAAAUACUUUCAAGCAACAGAGGAUUGAGCAUCA
B11: chr19:16212804:16212805:+_ENSG00000167460_ENST00000300933|hu_mus|hu_hu_hu_mus_False|98_98 (ssRNA)
RNA: GGGAGUUCUACAGUCCGACGAUCAACAAUUCUGGAGAAGAACAUCAAUGUAACAUGGAACAGCAUUAAAGCUCAGUCAGAAGGCACAUGGGCAACAAUGAUCACCCCAGCAUUCUCGCUUGGAAUGCUUAAAGACAAUCUGUUCAACAGAGGAUUGAGCAUCA
B12: chr16:55990476:55990477:+_ENSMUSG00000022601_ENSMUST00000050248|mus_hu|FALSE|FALSE (ssRNA)
RNA: GGGAGUUCUACAGUCCGACGAUCUAGCUUAUGUACACUUUCACAAAUCUCUAAGACUUCUGACAUGAAAAGAUGACGAGCUAAGAUGGCUACAUCAGCCAUGCUACAGAAAUCAAAACUUAGUACAGAAGUAUAGGCAAAUUCCAACAGAGGAUUGAGCAUCA
B13: chr9:71842732:71842733:+_ENSG00000119139_ENST00000377245|hu_mus|motif|central (ssRNA)
RNA: GGGAGUUCUACAGUCCGACGAUCAUCCUGAUCAGAAUACUGCUGGCGUCUCUCCUCUGGAGAGAAAGACCGGUUGGACUCGGUUUCCGAGAUAUCCUCCACUUCAGAGUCGCUGUCGUUUAGGGCUGGGAUGUUGAUGAGGGUCAACAGAGGAUUGAGCAUCA
B14: chr14:66974463:66974464:+_ENSMUSG00000022044_ENSMUST00000074523|mus_hu|mus_mus_mus_hu_False|38_68 (ssRNA)
RNA: GGGAGUUCUACAGUCCGACGAUCUUGUAGGACGACUUAUUCAGGGGAUCGGCCAGGAAGCAGGAGCAGAACAGAGACACCAGCGGGAGCUCCUUCAUCUUCUCCUUGUAGGCAGCAAGGGUCAUGUUUCUGGGAUCUGGUGGCCAACAGAGGAUUGAGCAUCA

The other results are listed elsewhere or left out.

For this assay, the target named is T1, UNK ZnF1-3 (human, UniProt Q9C0B0 31-174).
T1 sequence: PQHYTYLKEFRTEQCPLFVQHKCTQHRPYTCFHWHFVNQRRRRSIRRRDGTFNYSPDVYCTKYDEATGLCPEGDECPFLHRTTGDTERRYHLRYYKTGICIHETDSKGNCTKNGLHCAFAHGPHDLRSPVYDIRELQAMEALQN
The assay can be described thus: nsRBNS (natural sequence RNA bind-n-seq); RBNS binding buffer (assumed for nsRBNS): 25 mM Tris pH 7.5, 150 mM KCl, 3 mM MgCl2, 0.01% Triton X-100, 500 ug/ml BSA, 20 U/ml SUPERase-In, 4 C; UNK is unkempt and MSI1 is Musashi-1; names of the RNAs are library labels; protein concentration not given here; high values mean tight binding.
As to B1, the binding signal came out at 1.02 enrichment R. B2: the binding signal is 0.546 enrichment R. Consider B3, for which the binding signal is 0.953 enrichment R. Take B4: the binding signal is 1.04 enrichment R. B5 displayed a binding signal of 0.756 enrichment R. In turn, B6 displayed a binding signal of 1.7 enrichment R. Molecule B7 yielded a binding signal of 1.03 enrichment R. B8 registered a binding signal of 0.97 enrichment R. The result for B9 reads 0.786 enrichment R; that for B10, 1.13 enrichment R; that for B11, 1.2 enrichment R.

B12 returned a binding signal of 0.841 enrichment R. The result for B13 reads 0.75 enrichment R. On to B14, for which the binding signal amounted to 2.34 enrichment R.

(Values after paper PMC12136788.)
